# Laboratory results: PubChem BioAssay AID485313 (National Center for Advancing Translational Sciences (NCATS), 2010)
# The campaign covered roughly 320,000 compounds. About 7,600 (2.4%) were called active. The inconclusive results got no clear call from the source; some entries with a clear call stand among them for comparison. The call rests on the fitted dose curve; in most records, active means well fitted activation curve with a large enough effect; inconclusive means small, poorly fitted or top-dose-only effect; inactive means no such curve, though single readings can be large or run the other way. Potencies of inconclusive entries are left out as doubtful fits.
# Assay: qHTS Assay for NPC1 Promoter Activators; further: nearly all actives have a fitted effect of over 60% in size;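 on activation: reporter is driven by a mutant NPC1 promoter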
# Details: Huh7 NPC1 promoter luciferase reporter, 24 h; series mostly up to 9.22 µM
# In short: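 Compounds in DMSO were transferred onto Huh7 NPC1-luciferase reporter cells pre-incubated 2 h; after 24 h at 37 °C, Amplite reagent was dispensed and luminescence recorded 10 min later.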
# Potency means the concentration at half of the fitted maximal effect; tags describe the fitted curve by direction and shape.
row,SMILES,Potency
1,COc1ccc(NC(=O)c2cc3ccccn3n2)cc1,active: 1 µM
2,Cc1c(C(=O)Nc2ccc3c(c2)OCCO3)cnn1C,"inconclusive [activator, partial curve]"
3,O=C(OCCc1cc2ccccc2c(=O)o1)c1ccc(C(F)(F)F)cc1,inactive
4,COc1ccc(C(=O)NC(=S)SCC(=O)O)cc1,inactive
5,COc1ccc2nc(NC(=O)c3ccoc3C)sc2c1,active: 0.631 µM
6,CSC1=NC(C)N2C(SC)=NC(C)N12 (configuration not stated),inactive
7,COc1cc2c(cc1OC)CN(C(=O)CSc1nc(C)cc(C)c1C#N)CC2,inactive
8,O=C(NCCc1ccc(F)cc1)c1n[nH]c2ccccc12,"inconclusive [activator, partial curve]"
9,C=CCn1cccc(C(=O)Nc2ccc(C)cc2)c1=O,active: 4.47 µM
10,Cc1ccccc1OCc1nc(-c2ccc(NC(=O)c3ccco3)cc2)no1,"inconclusive [activator, single point]"
11,O=C1CCN(Cc2ccccc2)CCN1CCSc1ccccc1,"inconclusive [activator, single point]"
12,COc1cc2ccccc2cc1C(=O)Nc1ccc(O)cc1,active: 1.41 µM
13,CO/N=C/CC(=O)c1cnc(-c2ccc(Cl)cc2)s1,"inconclusive [activator, partial curve]"
14,CC/C(C)=N\Nc1nc(-c2cc3cc(OC)ccc3oc2=O)cs1,"inconclusive [activator, partial curve]"
15,COc1cccc(NC(=O)C(=O)NCCCN2CCCC2=O)c1,"inconclusive [activator, partial curve, poor fit]"
16,Cc1cccc(NC(=O)c2ccc3ccccc3n2)n1,active: 3.16 µM
17,COc1ccc(C(=O)Nc2ccc(-c3ccc(C)o3)cc2)cc1S(=O)(=O)N1CCOCC1,inactive
18,CCOC(=O)c1cnc(-c2ccccc2)nc1Oc1ccc(Cl)cc1,inactive
19,CCn1c(C)nc2cc(C(=O)N/N=C(\C)c3ccc(OC)cc3O)ccc21,inactive
20,CCN1CCN(Cc2ccc(OCc3ccccc3)c(OC)c2)CC1,"inconclusive [activator, partial curve]"
21,COc1ccc(OCc2cc(C(=O)N3CCN(C4CCCC4)CC3)no2)c(Cl)c1,active: 3.16 µM
22,Cc1ccccc1-c1nc(-c2ccc(Br)o2)no1,active: 1.78 µM

row,SMILES,Potency
1,CC1CCc2nc(NC(=O)C3CC3)sc2C1 (configuration not stated),"inconclusive [activator, partial curve]"
2,CCc1nnc(NS(=O)(=O)c2ccc(NC(=O)c3ccc(Cl)cc3)cc2)s1,inactive
3,CS(=O)(=O)c1ccc2nc(NC(=O)c3cccc(Cl)c3)sc2c1,inactive
4,CCOC(=O)CNC(=O)CSc1nnc(NC(=O)c2ccc(C)cc2)s1,active: 1.78 µM
5,Cc1ccc(C)n1-c1ccc(-c2ccn[nH]2)cc1,"inconclusive [activator, single point]"
6,Fc1ccccc1-c1ccc(/C=N/Nc2nc3ccccc3[nH]2)o1,"inconclusive [activator, single point]"
7,N#C/C(C(=O)c1ccccc1)=C1/CCCCCN1,"inconclusive [activator, partial curve]"
8,CC(=O)c1cc2c(cc1NS(=O)(=O)c1cccc(C(=O)O)c1)OCO2,inactive
9,CC1CC(C)CN(c2ncnc3c2cnn3C)C1 (configuration not stated),inactive
10,Cc1ccc(/C(N)=N/OC(=O)c2ccc3ccccc3c2)cc1,"inconclusive [activator, partial curve]"
11,COc1cccc(OCc2cc(C(=O)N(C)Cc3nc(C)cs3)no2)c1,active: 3.16 µM
12,N/C(=N\OC(=O)COc1ccc(Cl)cc1Br)c1ccncc1,active: 3.55 µM
13,Cc1ccc(NC(=O)CCCNC(=O)c2ccc(Cl)cc2)nc1,inactive
14,COC(=O)c1cc(NC(=O)Nc2ccccc2)ccc1Cl,inactive
15,O=C(/C=C/c1ccc(O)c(O)c1)NC(=O)c1ccccc1O,"inconclusive [activator, single point]"
16,COc1cccc(OC)c1NC(=O)C1CCCN1C(=O)Nc1cccc(Cl)c1 (configuration not stated),inactive
17,O=c1c2cc(NC(=S)N3CCCCCC3)ccc2nc2n1CCCCC2,inactive
18,CC1CCN(S(=O)(=O)c2cnc[nH]2)CC1,inactive
19,O=C(Nc1ccsc1C(=O)NC1CCCCC1)c1ccc(F)cc1,inactive
20,O=[N+]([O-])c1ccccc1CSc1nnc2ccccn12,"inconclusive [activator, single point]"
21,CC(C)Oc1ccc(C(CC(=O)O)NC(=O)c2cccs2)cc1 (configuration not stated),inactive
22,COc1cccc(CN(C)C(=O)c2ccc(COc3ccc(Cl)cc3)cc2)c1OC,"inconclusive [activator, single point]"

row,SMILES,Potency
1,C=CCNC(=O)c1cc(-c2ccc3c(c2)OCO3)on1,active: 0.447 µM
2,O=C1Nc2ccccc2/C1=C/c1cnc(-c2ccccc2)[nH]1,active: 2.82 µM
3,O=C(Nc1cccc2nsnc12)c1cccs1,"inconclusive [activator, single point]"
4,Cc1ccc(SCc2cc(=O)n3ccsc3n2)c(C)c1,"inconclusive [activator, partial curve]"
5,CC(C)(C)c1ccc(/C=C2/SC(N3CCCC3)=NC2=O)cc1,inactive
6,COCc1c(CCl)cnc(C)c1O,inactive
7,COc1ccccc1N1CCN(c2ccc(-c3ccccc3)nn2)CC1,"inconclusive [activator, full curve, poor fit]"
8,Cc1ccc2nc(CSc3nc(C)ccc3C#N)[nH]c2c1,"inconclusive [activator, full curve]"
9,CC(=O)c1sc(NCc2ccc(C)cc2)nc1C,active: 3.16 µM
10,C(=C\c1ccccc1)/C=N/Nc1ccc2nncn2n1,"inconclusive [activator, partial curve]"
11,Cc1ccc(/C(N)=N/OC(=O)c2cccc(Cn3cc(C(F)(F)F)ccc3=O)c2)cc1,"inconclusive [activator, partial curve]"
12,Cc1ccc(NC(=S)c2ccccc2)cc1,"inconclusive [activator, partial curve]"
13,Cc1cc2cc(CNC(=O)CC(C)C)ccc2n1C,inactive
14,Cc1ccc2nc(CCc3ccc(N)cc3)[nH]c2c1,active: 2.82 µM
15,COc1ccc(CNC(=O)c2ccc3oc(C(C)C)nc3c2)cc1,active: 3.55 µM
16,Cc1ccccc1OCc1nc2c3cnn(C)c3ncn2n1,active: 3.98 µM
17,COc1ccccc1NS(=O)(=O)c1ccc(C(=O)N2CCCC(C(F)(F)F)C2)cc1 (configuration not stated),inactive
18,O=C(Cc1cccs1)NCc1cccc(C(F)(F)F)c1,"inconclusive [activator, partial curve]"
19,Cc1oncc1C(=O)Nc1ccc2ccccc2c1,"inconclusive [activator, partial curve]"
20,COC(=O)CCC(=O)c1ccc(OC)c(Cl)c1,inactive
21,COCC(=O)Nc1c(C(=O)Nc2ccc3c(c2)OCCO3)oc2ccccc12,active: 1.41 µM
22,Cc1nc(NCCc2ccccc2)sc1C(=O)N(C)C,"inconclusive [activator, single point]"

row,SMILES,Potency
1,CCCN1CCN(CCCNC(=O)c2ccccc2NC(=O)C2=C(C)OCCS2)CC1,inactive
2,Cc1cc(NC(=O)C2CC2)n(-c2nc3ccccc3s2)n1,inactive
3,CCOC(=O)C1CCN(C(=S)Nc2ccc(CC)cc2)CC1,"inconclusive [activator, single point]"
4,O=C(c1cc(-c2cccc(O)c2)on1)N1CCCC1,"inconclusive [activator, single point]"
5,O=C(CC(c1ccco1)S(=O)(=O)c1ccccc1)c1ccccc1 (configuration not stated),inactive
6,COc1cc(C)ccc1OCCOc1ccccc1Cl,"inconclusive [activator, single point]"
7,COc1ccc(-c2nc3ncccn3c2Br)cc1,"inconclusive [activator, single point]"
8,O=C(CSc1nc2ccccc2[nH]1)N1CCCCC1,"inconclusive [activator, partial curve]"
9,COc1cc(OC)cc(-c2nc(-c3ccccc3)no2)c1,"inconclusive [activator, single point]"
10,Cc1noc(/C=C/c2nn(C)cc2Cl)c1[N+](=O)[O-],inactive
11,CCCOC1CCCN(C(=O)c2cc(COc3c(F)cccc3F)on2)C1 (configuration not stated),active: 2.82 µM
12,CC(C)(C)c1ccc(/C=C/C(=O)Nc2ncccn2)cc1,active: 3.98 µM
13,COc1cccc(-c2cc(C(=O)Nc3cccc(O)c3)no2)c1,"inconclusive [activator, single point]"
14,Cc1cc[n+](C(C)C(=O)c2ccc(-c3ccccc3)cc2)cc1 (configuration not stated),inactive
15,Nc1[nH]c(N=NC(=O)c2ccc(F)cc2)c2ccccc12,"inconclusive [activator, single point]"
16,COc1cc(C(=O)Nc2ccc([N+](=O)[O-])cn2)cc(OC)c1OC,inactive
17,Cn1ccnc1SCC(=O)c1ccc(Br)cc1,"inconclusive [activator, single point]"
18,Cc1cc(/C=N/NC(N)=O)c(C)n1-c1ccc(F)cc1,inactive
19,CCOC(=O)c1cc(=O)n2c(nc3ccccc32)[nH]1,inactive
20,Cn1ccc(C(=O)Oc2ccc(C(=O)Nc3ccc(F)cc3F)cc2)n1,"inconclusive [activator, partial curve]"
21,Cc1ccc2nc(N3CCN(C(=O)c4ccco4)CC3)sc2c1,"inconclusive [activator, single point]"
